# From PMC4336329 (PLoS ONE, 2015)
# The campaign covered roughly 310,000 compounds. About 14,000 (4.5%) showed an effect of 50% or more. Effects have a minus sign here. This is one part of the list.
# Molecular target: human ether-à-go-go-related gene (hERG) potassium channel (human, UniProt Q12809)
# Assay: primary screen, population patch clamp on CHO cells stably expressing hERG
# 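Note: peak tail current of the secondary pulse compared with the same well before compound.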
# Sequence of human ether-à-go-go-related gene (hERG) potassium channel (Q12809 whole entry, looked up): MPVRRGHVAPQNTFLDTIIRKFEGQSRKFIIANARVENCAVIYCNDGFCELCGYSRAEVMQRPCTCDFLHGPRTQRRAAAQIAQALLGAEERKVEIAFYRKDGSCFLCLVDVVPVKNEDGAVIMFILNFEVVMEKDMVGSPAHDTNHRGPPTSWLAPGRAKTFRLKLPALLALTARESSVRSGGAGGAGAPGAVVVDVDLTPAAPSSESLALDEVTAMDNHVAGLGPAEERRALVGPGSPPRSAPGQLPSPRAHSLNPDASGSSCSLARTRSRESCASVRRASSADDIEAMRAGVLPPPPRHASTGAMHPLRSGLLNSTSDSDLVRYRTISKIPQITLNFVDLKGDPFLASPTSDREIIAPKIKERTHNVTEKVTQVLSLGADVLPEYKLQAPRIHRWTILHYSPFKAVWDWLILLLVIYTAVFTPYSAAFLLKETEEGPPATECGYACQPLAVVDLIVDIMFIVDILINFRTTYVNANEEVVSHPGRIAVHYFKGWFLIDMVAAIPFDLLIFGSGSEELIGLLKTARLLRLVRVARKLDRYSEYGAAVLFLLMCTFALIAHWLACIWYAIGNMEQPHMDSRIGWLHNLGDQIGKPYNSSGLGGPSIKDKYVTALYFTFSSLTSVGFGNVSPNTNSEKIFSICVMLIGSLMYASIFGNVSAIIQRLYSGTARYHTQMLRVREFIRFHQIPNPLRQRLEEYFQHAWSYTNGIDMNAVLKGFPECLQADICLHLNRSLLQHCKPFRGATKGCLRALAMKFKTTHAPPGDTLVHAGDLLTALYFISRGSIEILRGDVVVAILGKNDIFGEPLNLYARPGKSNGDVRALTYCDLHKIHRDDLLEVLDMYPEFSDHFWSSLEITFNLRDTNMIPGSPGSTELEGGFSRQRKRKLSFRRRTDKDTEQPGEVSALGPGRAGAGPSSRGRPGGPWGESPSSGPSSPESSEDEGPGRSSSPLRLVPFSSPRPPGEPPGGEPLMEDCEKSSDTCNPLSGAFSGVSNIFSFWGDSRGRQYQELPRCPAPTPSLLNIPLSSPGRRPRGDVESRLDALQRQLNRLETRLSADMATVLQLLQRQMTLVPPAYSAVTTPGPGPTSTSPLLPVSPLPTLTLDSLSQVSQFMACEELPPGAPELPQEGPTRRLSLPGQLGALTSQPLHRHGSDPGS
row,Structure (SMILES),"hERG current change (%, negative = inhibition) at 10uM"
1,CCc1cccc(NC(=O)CNC(=O)N2CC(=O)Nc3ccccc32)c1,-8.55%
2,Cc1cc(C(=O)O[C@H]2[C@H](C)NS(=O)(=O)[C@H]3C[C@@H]4C=C[C@]23O4)cc([N+](=O)[O-])c1,4.52%
3,COc1ccc2c(c1)N(C(=O)CN1C(=O)C3CCCCC3C1=O)C(C)(C)C=C2C (centres unmarked),-4.67%
4,O=C(Cn1ncc2c(=O)oc3ccccc3c21)NCCC1=CCCCC1,-3.92%
5,O=C(CCc1ccc(S(=O)(=O)N2CCOCC2)cc1)NCCCN1CCCC1=O,5.62%
6,Cc1[nH][nH]c(=O)c1C(c1ccccc1[N+](=O)[O-])C(C#N)C#N (centres unmarked),14.5%
7,CC(C)Cn1c(SCC(=O)NCCCN2CCCC2=O)nc2ccccc21,17.5%
8,CN(C)c1ccc(/C=N/NC(=O)c2nnn(-c3nonc3N)c2COc2ccc(F)cc2)cc1,11%
9,COc1ccccc1C(C)NC(=O)c1cc(S(=O)(=O)N2CCCCC2)ccc1C (centres unmarked),-2.32%
10,CCSc1nnc(SCC(=O)NNC(=O)c2ccccc2F)s1,-4.1%
11,CSc1ccccc1NC(=O)CSCc1ccccc1Br,4.94%
12,O=C(NC(=O)c1ccccc1)C1=C(N2CCCC2)COC1=O,2.32%
13,COC(=O)c1ccc(S(=O)(=O)NNC(=O)COc2ccc(C)cc2)cc1,10.4%
14,O=C(COC(=O)c1c(F)cccc1Cl)NC(=O)Nc1ccc2c(c1)OCCO2,12.4%
15,Cc1onc(-c2ccccc2Cl)c1C(=O)NCC1CCCO1 (centres unmarked),-0.317%
16,COc1ccc(N2C(=O)CSC2c2cccs2)cc1 (centres unmarked),-3.37%
17,Cc1cc(C)n(CC2CC(=O)N(c3ccc(C)c(Cl)c3)C2=O)n1 (centres unmarked),-3.7%
18,NS(=O)(=O)c1ccc(CCNC(=O)C2CCN(S(=O)(=O)c3ccccc3)CC2)cc1,14.4%
19,CC1CCCC(C)N1C(=O)CSc1nccc(=O)[nH]1 (centres unmarked),-0.231%
20,Cc1cc2c(cc1S(=O)(=O)N1CCN(c3ccccc3)CC1)OCCN2C,-32.7%
21,CCN(CC)S(=O)(=O)c1ccc(NN=C2CCN(C(C)C)CC2)c([N+](=O)[O-])c1,-38.3%
22,Cc1ccc(S(=O)(=O)Nc2cnn(-c3ccccc3)c(=O)c2Cl)cc1,18.6%

row,Structure (SMILES),"hERG current change (%, negative = inhibition) at 10uM"
1,CCN1C(=O)NC(=O)/C(=C\c2cn(CC(=O)N3CCCC3)c3ccccc23)C1=O,-0.147%
2,CCOc1ccccc1NS(=O)(=O)c1ccc2c(c1)n(C)c(=O)c(=O)n2C,-44.8%
3,C1CCCN(c2nc3nonc3nc2N2CCCCCC2)CC1,8.53%
4,O=c1[nH]cc(F)c(=O)[nH]1,6.92%
5,COC(=O)c1cccc(NS(=O)(=O)c2ccc(OC)c(C(=O)N3CCOCC3)c2)c1C,16.9%
6,CC(=O)c1cccc(NC(=O)Cc2ccc3c(c2)CCCC3)c1,18.8%
7,CC(OC(=O)Cn1cnc2ccccc2c1=O)C(=O)NCc1ccccc1 (centres unmarked),10.8%
8,Cc1cc(OCCN2CCC(Cc3ccccc3)CC2)ccc1[N+](=O)[O-].O=C(O)C(=O)O,-79.1%
9,O=C(Nc1ccc(F)cc1F)c1cc(Cl)sc1Cl,3.22%
10,CC1CCCCC1NS(=O)(=O)CCNC(=O)c1ccc2c(c1)OCO2 (centres unmarked),8.62%
11,CCc1ccc(C(=O)N/N=C(\C)c2cccnc2)s1,1.05%
12,CC(=O)NCCOc1cccc2ccccc12,2%
13,O=C(CNS(=O)(=O)c1ccc(F)c(Cl)c1)N1CCCCCC1,-0.168%
14,C#CCOCCOCCOCCNc1nc(N2CCOCC2)nc(N2CCN(C(=O)[C@H](C)n3cc(CCC[NH+]=C(N)N)nn3)CC2)n1.[Cl-],4.73%
15,CCCN1CCc2c(sc(NC(=O)C3CCN(S(=O)(=O)c4cccs4)CC3)c2C(N)=O)C1.Cl,-61.3%
16,COc1ccc(CCNc2c(C=O)c(=O)[nH]c3ccccc23)cc1OC,9.61%
17,O=C(Nc1ccc2oc(=O)ccc2c1)c1cc([N+](=O)[O-])ccc1N1CCOCC1,-41.8%
18,CC(C)CCn1cnc2c1c(=O)n(CC(=O)NC(N)=O)c(=O)n2Cc1ccccc1,6.8%
19,CC(C)=CC(=O)Nc1ccc(OCc2ccccc2)cc1,4.31%
20,CCC(=O)N1CCC(c2ccc(OC)cc2)=N1,15.6%
21,COc1cc(NC(=O)c2sc3ncn(CC(=O)N4CCCCC4)c(=O)c3c2C)cc(OC)c1OC,-4.83%
22,COc1cc2c(=O)n(CCCC(=O)NCC3CCCO3)c(=O)n(CC(=O)c3ccc(F)cc3)c2cc1OC (centres unmarked),-2.1%
